From paper PMC13083723 (Patterns, 2026) come the findings set out here.

Out of some 5,400 compounds screened, about 190 (3.5%) showed an effect of 50% or more. The list shows a part of the results. Positions of bridges follow the written chain, without caps; N, C: chain ends. Non-standard residues stand in square brackets, D forms with d. Residues, ends and D or L forms follow the SMILES beside them. hArg = N=C(N)NCCCC[CH](N)C(=O)O; Mpa = O=C(O)CCS

The experiment deals with Vero-E6. Put plainly: primary screen, phospholipidosis by LipidTOX staining; higher = more effect of the substance. The conditions noted are these: 10 µM. On the procedure:
To measure drug-induced PLD in Vero-E6 cells, we used the HCS LipidTOX Red Phospholipidosis Detection Reagent (Invitrogen, #H34351), which is non-toxic to cell growth and remains well retained after aldehyde fixation. In this setup, compounds (at 10 μM concentration) and controls (amiodarone: 10 μM concentration; DMSO: 0.1 v/v %) were added to clear-bottom, 384-well plates (PhenoPlate 384-well, black, optically clear flat bottom, tissue-culture treated, Revvity #6057302) using the Echo Liquid Handler (Labcyte).
For the molecule `CC(C)C[C@H](NC(=O)[C@H](Cc1ccccc1)NC(=O)CNC(=O)[C@H](C)NC(=O)[C@@H](N)Cc1ccc(O)cc1)C(=O)O`, the result_ITMP was found to be 0.21%.
To `Clc1cccc(C(c2ccc3nc[nH]c3c2)n2ccnc2)c1` (stereo not drawn) belongs -2.01%; to `CC1=C[C@H](O)CC(C)(C)[C@H]1/C=C/C(C)=C/C=C/C(C)=C/C=C/C=C(C)/C=C/C=C(C)/C=C/C1=C(C)C[C@@H](O)CC1(C)C`, 0.14%.
To `CCc1nc2c(C)nc(C)cc2n1-c1ccc(CCNC(=O)NS(=O)(=O)c2ccc(C)cc2)cc1` belongs -1.88%; to `CCCc1c(OCC(O)COc2ccc3c(=O)cc(C(=O)O)oc3c2CCC)ccc(C(C)=O)c1O` (stereo not drawn), -5.36%; to `C[C@H]1CNCCCN1S(=O)(=O)c1cccc2cncc(F)c12`, 0.75%.
Consider `N#Cc1c(N)nc(SCC(N)=O)c(C#N)c1-c1ccc(OCC2CC2)cc1`, for which the result_ITMP is -1.94%.
Consider `C#Cc1cnc2[nH]c(=O)n(C(CC)CC)c2n1`, for which the result_ITMP is -1.48%.
The figure for `Cc1ccc(S(=O)(=O)N2CCC[C@H]2c2ccc(F)cc2)cc1` is 9.2%.
Turning to `N[C@H](C(=O)O)[C@H](O)c1ccc(O)c(O)c1`, the result_ITMP was 8.63%.
Turning to `CN(C)c1nc(N(C)C)nc(N(C)C)n1`, the result_ITMP is -11.5%.
For `COc1cc2c(cc1-c1c(C)noc1C)ncc1[nH]c(=O)n([C@H](C)c3ccccn3)c12`, the result_ITMP was 27.7%.
To `O=C(OC(C(F)(F)F)C(F)(F)F)N1CCN(Cc2cccc(Oc3ccccc3)c2)CC1` belongs -7.46%; to `N=C(N)NCCCC[C@@H]1NC(=O)CCSSC[C@@H](C(N)=O)NC(=O)[C@@H]2CCCN2C(=O)[C@H](Cc2c[nH]c3ccccc23)NC(=O)[C@H](CC(=O)O)NC(=O)CNC1=O` ([Mpa][hArg]GDWPC-NH2; disulfide 1-7; configuration not given here), -2.04%; to `COc1nccc(-c2c(-c3ccc(F)cc3)ncn2C2CCNCC2)n1`, -2.21%.
The figure for `CCn1c(=O)c(-c2cc[nH]n2)cc2c(C)nc(N)nc21` is -0.35%; for `CC(=O)OCC1=C(C(=O)O)N2C(=O)[C@@H](NC(=O)CS/C(=N/C(C)C)NC(C)C)[C@H]2SC1` it is 0.2%; for `CCO[C@@H]1OC(=O)C[C@@H]1NC(=O)[C@@H]1CCCN1C(=O)[C@@H](NC(=O)c1ccc(N)c(Cl)c1)C(C)(C)C` it is 0.09%.
The figure for `O=C(NO)c1ccc2[nH]c(=O)c(CCCc3ccccc3)nc2c1` is -1.98%; for `CCN1C(=O)CN=C2NC=C(c3ccc(-c4nnc[nH]4)nc3C)N=C21` it is -2.57%; for `CCN(CC)CCNC(=O)c1cc(S(C)(=O)=O)ccc1OC` it is -4.53%.
As for `O=C(CCCN1CC=C(n2c(=O)[nH]c3ccccc32)CC1)c1ccc(F)cc1`, the result_ITMP is reported as 2.35%.
To `C[C@@]1(F)[C@H](O)[C@@H](CO)O[C@H]1n1ccc(N)nc1=O` belongs -1.58%.
The figure for `CCCCCCCC/C=C\CCCCCCCC(=O)N[C@@H](CO)Cc1ccc(O)cc1` is -1.63%; for `CCCN(CCC)C1CCc2ccc(O)cc2C1` (stereo not drawn) it is 13.4%; for `Oc1c(I)cc(I)c2cccnc12` it is -3.2%.
The figure for `O=C(N[C@H](Cc1ccccc1)C(=O)O)c1sc2cc(F)ccc2c1Cl` is -1.39%; for `CCCCn1ccc(N2CCC(c3ccccc3)CC2)c(Cl)c1=O` it is -1.57%; for `C#CCN(C)Cc1ccccc1` it is -4.32%.
For `Cc1cc(C)c(N)c(C#Cc2cccc(F)c2)n1`, the result_ITMP is given as -8.54%.
As to `CN(C)c1ccc(C(=O)NCCCCCCC(=O)NO)cc1`, the result_ITMP is reported as -7.81%.
As to `CCCCCC(C)N` (stereo not drawn), the result_ITMP was -1%.
The figure for `COc1ccc2cc(CCC(C)=O)ccc2c1` is -6.81%; for `Cc1cccc(/C=C/c2ccccc2)n1` it is -1.79%; for `CCn1cc(C(=O)O)c(=O)c2ccc(C)nc21` it is -1.64%.
For `Cc1cc(C)cc(C(=O)N(C)[C@H](Cc2ccc(-c3ccccc3)cc2)C(=O)N[C@@H](Cc2c[nH]c3ccccc23)C(=O)O)c1`, the result_ITMP is on record as -0.52%.
The figure for `COc1ccc(-c2oc3c(CC=C(C)C)c(O[C@@H]4O[C@H](CO)[C@@H](O)[C@H](O)[C@H]4O)cc(O)c3c(=O)c2O[C@@H]2O[C@@H](C)[C@H](O)[C@@H](O)[C@H]2O)cc1` is -0.72%; for `CCCCCCCCCCCCCCCC(=O)OCCC1CCN(CCCN2c3ccccc3Sc3ccc(S(=O)(=O)N(C)C)cc32)CC1` it is -5.2%; for `COc1ccc(OC)c(CN(C(C)=O)c2cc(F)ccc2Oc2ccccc2)c1` it is -2.6%.
As for `Cc1ccc(S(=O)(=O)NC(=O)NN2CC3CCCC3C2)cc1` (stereo not drawn), the result_ITMP was -6.34%.
As for `COCc1nnc(N2CC(Oc3ccc(F)cc3Cl)C2)n1-c1ccc(OC)nc1`, the result_ITMP was -7.42%.
To `Nc1nc(S)c2ncn([C@@H]3O[C@H](CO)[C@@H](O)[C@H]3O)c2n1` belongs 19.1%.
To `c1ccc(C2CN3CCSC3=N2)cc1` (stereo not drawn) [R4A_0001404_001 / SPE_K73107279] belongs -7.98%.
On to `c1ccc(C(NCCNC(c2ccccc2)c2ccccc2)c2ccccc2)cc1`, for which the result_ITMP is recorded as 30.1%.
The figure for `NC(N)=NCCC[C@H](NC(=O)c1sccc1NS(=O)(=O)c1cccc2nsnc12)C(=O)O` is 3.71%.
As to `O=c1c(O)c(-c2cc(O)c(O)c(O)c2)oc2cc(O)cc(O)c12`, the result_ITMP is recorded as -9.27%.
To `CC(C)(C)C(=O)Oc1ccc(S(=O)(=O)Nc2ccccc2C(=O)NCC(=O)[O-])cc1` belongs -1.15%.
In the case of `CNC(=O)c1ccccc1Sc1ccc2c(/C=C/c3ccccn3)[nH]nc2c1`, the result_ITMP was -1.97%.
The figure for `CCN(CC)CCOc1ccc(Cc2ccccc2)cc1` is 30.2%.
To `CCC(N)C(O)c1ccc(O)c(O)c1` (stereo not drawn) belongs -3.39%; to `CCn1cc(C(=O)O)c(=O)c2cnc(N3CCNCC3)nc21`, -3.43%; to `CCCCS(=O)(=O)N[C@@H](Cc1ccc(OCCCCC2CCNCC2)cc1)C(=O)O`, 0.26%.
With `NCCS(=O)(=O)O`, the result_ITMP is reported as -1.24%.
`COc1cc2nc(N3CCN(C(=O)c4ccco4)CC3)nc(N)c2cc1OC`: the result_ITMP is recorded as 0.05%.
For the molecule `O=C1C=Cc2cc(Br)ccc2C1=O`, the result_ITMP is -7.69%.
The figure for `O[C@H]1[C@H](O)[C@@H](O)CN2CC[C@H](O)[C@H]12` is -1.92%; for `CCCCCCCCCCCCCC(=O)[O-].CCCCCCCCCCCCCC(=O)[O-].NC1CCCCC1N.[Pt+2]` it is 0.26%; for `CCCC[C@@H](C=O)NC(=O)[C@H](CC(C)C)NC(=O)OCc1ccccc1` it is -1.78%.
To `Cc1ccc(NC(=O)c2ccc(CN3CCN(C)CC3)cc2)cc1Nc1nc(-c2cccnc2)cs1` belongs 54%; to `COc1nc(C)nc(Cl)c1NC1=NCCN1`, -1.91%.
On to `C[C@](O)(COc1ccc(C#N)cc1)C(=O)Nc1ccc(C#N)c(C(F)(F)F)c1`, for which the result_ITMP is -3.77%.
To `Oc1ccc2c3c1O[C@H]1c4c(c5ccccc5n4Cc4ccccc4)C[C@@]4(O)C(C2)N(CC2CC2)CC[C@]314` belongs 47.6%; to `CO[C@@]1(NC(=O)C(C(=O)[O-])c2ccc(O)cc2)C(=O)N2C(C(=O)[O-])=C(CSc3nnnn3C)CO[C@@H]21` (stereo partly drawn), -4.09%; to `CS(=O)(=O)Nc1ccc(-c2coc3cc(OCc4cccc(C(=O)O)c4)ccc3c2=O)cc1`, 4.65%.
The figure for `C=CC[C@@H]1/C=C(\C)C[C@H](C)C[C@H](OC)[C@H]2O[C@@](O)(C(=O)C(=O)N3CCCC[C@H]3C(=O)O[C@H](/C(C)=C/[C@@H]3CC[C@@H](O)[C@H](OC)C3)[C@H](C)[C@@H](O)CC1=O)[C@H](C)C[C@@H]2OC` is 0.53%.
The figure for `BrC1C(Br)C(Br)C(Br)C(Br)C1Br` (stereo not drawn) is -2.01%; for `O=C(N/N=C/c1ccc(O)c(O)c1)c1cc2ccccc2cc1O` it is -0.67%.
On to `O=S(=O)(O)c1ccc(-c2c3nc(c(-c4ccc(S(=O)(=O)O)cc4)c4ccc([nH]4)c(-c4ccc(S(=O)(=O)O)cc4)c4nc(c(-c5ccc(S(=O)(=O)O)cc5)c5ccc2[nH]5)C=C4)C=C3)cc1`, for which the result_ITMP turned out to be 1.12%.
Take `CCCC(CCC)C(=O)[O-]`: the result_ITMP was -5.85%.
On to `Cc1ccc(C(=O)c2cc(O)c(O)c([N+](=O)[O-])c2)cc1`, for which the result_ITMP is listed as 6.64%.
The figure for `O=S(=O)([O-])CC(S)CS` (stereo not drawn) is -3.17%; for `CC(N)Cc1c[nH]c2ccc(O)cc12` (stereo not drawn) it is -1.42%; for `O=C(Nc1ccc(Cl)cc1)Nc1cccc(-c2cccc(N3CCCC3)n2)c1` it is -10.8%.
The figure for `COc1ccc2[nH]cc(CCNC(C)=O)c2c1` is -1.72%; for `Cn1nc(-c2cccc(F)c2)n(C)c1=S` it is 0.34%; for `N#CN1CCCC1` it is -7.33%.
As to `COc1ccc(COc2ccc(Cc3cnc(N)nc3N)cc2OC)cc1`, the result_ITMP is given as -3.18%.
To `C=CC(=O)N1CCCC(n2nc(-c3ccc(Oc4ccccc4)cc3)c3c(N)ncnc32)C1` (stereo not drawn) belongs -4.8%.
To `Cc1cc([N+](=O)[O-])ccc1NS(=O)(=O)c1cc(Cl)ccc1Cl` belongs -0.26%; to `COc1ccc(C(=O)NCc2cccnc2)cc1C(=O)NCc1cccnc1`, -4.7%; to `COc1cc(OC)c(/C=C/S(=O)(=O)Cc2ccc(OC)c(OP(=O)(O)O)c2)c(OC)c1`, 0.71%.
As to `CO[C@@]1(NC(=O)Cc2cccs2)C(=O)N2C(C(=O)[O-])=C(COC(N)=O)CS[C@@H]21`, the result_ITMP was -2.27%.
The figure for `CCC(=O)OCC(=O)C1(OC(=O)CC)[C@H](C)C[C@H]2[C@H]3[C@H]([C@@H](O)C[C@@]21C)[C@@]1(C)C=CC(=O)C=C1C[C@H]3Cl` (stereo partly drawn) is -10.3%.
To `O=C(O)CCNc1cc(N2CCc3ccccc3CC2)nc(-c2ccccn2)n1` belongs 0.05%; to `c1cnc(SCc2cccnc2)nc1`, 8.77%; to `O=C(NCCNCC(O)COc1ccc(O)cc1)N1CCOCC1` (stereo not drawn), -4.42%.
In the case of `Cc1nc(Nc2ccc(F)cc2)nc(N2CCc3ccccc3C2C)c1C` (stereo not drawn), the result_ITMP came to 18.1%.
